To fix the notation:
B1: TEV protease; numbered along this chain (parent)
chain: MGESLFKGPRDYNPISSSICHLTNESDGHTTSLYGIGFGPFIITNKHLFRRNNGTLVVQSLHGVFKVKDTTTLQQHLVDGRDMIIIRMPKDFPPFPQKLKFREPQREERICLVTTNFQTKSMSSMVSDTSCTFPSGDGIFWKHWIQTKDGQCGSPLVSTRDGFIVGIHSASNFTNTNNYFTSVPKNFMELLTNQEAQQWVSGWRLNADSVLWGGHKVFMVKPEEPFQPVKEATQL

Variants of B1 are the subject of the test. Put plainly: raw area under fraction-flipped curve 0-4 h after induction (AUC4h, not background-subtracted), DNA-recorder readout of cleavage of the substrate (dimensionless); higher = more cleavage of the substrate by the protease variant. The note with it: temperature: 34 °C; time window: 0-4 h after rhamnose induction. On the procedure: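 In vivo DNA recorder in E. coli TOP10(DE3) ΔrhaA at 34 °C. Each TEVp single-site mutant (parent TEVp 0) is paired with a single-site variant of the 7-mer TEVs (canonical ENLYFQ|S). The substrate sits between flexible linkers in a Bxb1-sfGFP-TEVs-SsrA fusion, so cleavage stabilises Bxb1 and speeds flipping of a recombination array, read by NGS. The value is the raw area under the fraction-flipped curve over 0-4 h after rhamnose induction (AUC4h), with ≥20 reads per time point. It is not background-subtracted; inactive controls average about 0.047.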

The other results are listed elsewhere or left out. The full chains were built here from the parent and the listed change. Inactive controls read about 0.05.
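Also: Bxb1 expression induced with 0.2% (w/v) L-rhamnose at OD600 near 0.5, cultures sampled hourly, flipped fraction per protease–substrate barcode pair counted by paired-end Illumina sequencing.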

As to MGESLFKGPRDYNPISSSICHLTNESDGHTTSLYGIGFGPFIITNKHLFRRNNGTLVVQSLHGVFKVKDTTTLQQHLVDGRDMIIIRMPKDFPPFPQKLKFREPQREERICLVTTNFQTKSMSSMVIDTSCTFPSGDGIFWKHWIQTKDGQCGSPLVSTRDGFIVGIHSASNFTNTNNYFTSVPKNFMELLTNQEAQQWVSGWRLNADSVLWGGHKVFMVKPEEPFQPVKEATQL [S127I], the “area with substrate ENLAFQS” value is 0.0627, the “area with substrate ENLDFQS” value amounted to 0.0491, the “area with substrate ENLEFQS” value is 0.0727 and the “area with substrate ENLFFQS” value was found to be 0.103. The “area with substrate ENLGFQS” value is 0.069, the “area with substrate ENLHFQS” value turned out to be 0.0693, the “area with substrate ENLKFQS” value was 0.0764 and the “area with substrate ENLLFQS” value is 0.0541. Further, the “area with substrate ENLMFQS” value came out at 0.0772, the “area with substrate ENLNFQS” value was found to be 0.0944, the “area with substrate ENLPFQS” value is 0.031 and the “area with substrate ENLQFQS” value worked out at 0.0675. For the same variant, the “area with substrate ENLSFQS” value was 0.0439, the “area with substrate ENLTFQS” value was 0.075, the “area with substrate ENLVFQS” value stood at 0.0777 and the “area with substrate ENLWFQS” value was found to be 0.0867.
With MGESLFKGPRDYNPISSSICHLTNESDGHTTSLYGIGFGPFIITNKHLFRRNNGTLVVQSLHGVFKVKDTTTLQQHLVDGRDMIIIRMPKDFPPFPQKLKFREPQREERICLVTTNFQTKSMSSMVLDTSCTFPSGDGIFWKHWIQTKDGQCGSPLVSTRDGFIVGIHSASNFTNTNNYFTSVPKNFMELLTNQEAQQWVSGWRLNADSVLWGGHKVFMVKPEEPFQPVKEATQL [S127L], the “area with substrate ENLAFQS” value stood at 0.0714, the “area with substrate ENLCFQS” value came to 0.0697, the “area with substrate ENLDFQS” value was 0.0589 and the “area with substrate ENLEFQS” value is 0.0684. Moreover, the “area with substrate ENLFFQS” value is 0.0973, the “area with substrate ENLGFQS” value stood at 0.0585, the “area with substrate ENLKFQS” value was 0.0889 and the “area with substrate ENLNFQS” value is 0.0542. Further, the “area with substrate ENLQFQS” value was 0.0688, the “area with substrate ENLRFQS” value was determined as 0.0726 and the “area with substrate ENLSFQS” value stood at 0.0531.
With MGESLFKGPRDYNPISSSICHLTNESDGHTTSLYGIGFGPFIITNKHLFRRNNGTLVVQSLHGVFKVKDTTTLQQHLVDGRDMIIIRMPKDFPPFPQKLKFREPQREERICLVTTNFQTKSMSSMVSDTSCTFPSGDGIFWKHWIPTKDGQCGSPLVSTRDGFIVGIHSASNFTNTNNYFTSVPKNFMELLTNQEAQQWVSGWRLNADSVLWGGHKVFMVKPEEPFQPVKEATQL [Q146P], the “area with substrate ENLAFQS” value is 0.047, the “area with substrate ENLCFQS” value worked out at 0.0814, the “area with substrate ENLDFQS” value was 0.0728 and the “area with substrate ENLEFQS” value is 0.0355. The “area with substrate ENLFFQS” value stood at 0.0854, the “area with substrate ENLGFQS” value came to 0.0643, the “area with substrate ENLHFQS” value was found to be 0.0748 and the “area with substrate ENLIFQS” value was determined as 0.0831. Besides, the “area with substrate ENLKFQS” value came to 0.0945, the “area with substrate ENLNFQS” value worked out at 0.0815, the “area with substrate ENLPFQS” value stood at 0.0782 and the “area with substrate ENLQFQS” value is 0.0837. Also, the “area with substrate ENLSFQS” value came to 0.0625.
As to MGESLFKGPRDYNPISSSICHLTNESDGHTTSLYGIGFGPFIITNKHLFRRNNGTLVVQSLHGVFKVKDTTTLQQHLVDGRDMIIIRMPKDFPPFPQKLKFREPQREERICLVTTNFQTKSMSSMVSDTVCTFPSGDGIFWKHWIQTKDGQCGSPLVSTRDGFIVGIHSASNFTNTNNYFTSVPKNFMELLTNQEAQQWVSGWRLNADSVLWGGHKVFMVKPEEPFQPVKEATQL [S130V], the “area with substrate ENLAFQS” value was 0.0632, the “area with substrate ENLCFQS” value was found to be 0.0608, the “area with substrate ENLDFQS” value turned out to be 0.0814 and the “area with substrate ENLEFQS” value was 0.0688. The “area with substrate ENLFFQS” value was 0.129, the “area with substrate ENLGFQS” value was 0.0751, the “area with substrate ENLHFQS” value is 0.0663 and the “area with substrate ENLIFQS” value came to 0.092. Further, the “area with substrate ENLKFQS” value was 0.0849, the “area with substrate ENLNFQS” value amounted to 0.064, the “area with substrate ENLPFQS” value turned out to be 0.0643 and the “area with substrate ENLRFQS” value came to 0.0743. Further, the “area with substrate ENLSFQS” value was determined as 0.0753 and the “area with substrate ENLWFQS” value was 0.0332.
Consider MGESLFKGPRDYNPISSSICHLTNESDGHTTSLYGIGFGPFIITNKHLFRRNNGTLVVQSLHGVFKVKDTTTLQQHLVDGRDMIIIRMPKDFPPFPQKLKFREPQREERICLVTTNFQTKSMSSMVSDTSCTFPSDDGIFWKHWIQTKDGQCGSPLVSTRDGFIVGIHSASNFTNTNNYFTSVPKNFMELLTNQEAQQWVSGWRLNADSVLWGGHKVFMVKPEEPFQPVKEATQL [G136D], for which the “area with substrate ENLAFQS” value worked out at 0.063, the “area with substrate ENLCFQS” value was 0.0608, the “area with substrate ENLDFQS” value was determined as 0.0611 and the “area with substrate ENLEFQS” value amounted to 0.0671. The “area with substrate ENLFFQS” value turned out to be 0.0679, the “area with substrate ENLGFQS” value came to 0.0767, the “area with substrate ENLKFQS” value was found to be 0.0615 and the “area with substrate ENLLFQS” value worked out at 0.0898. For the same variant, the “area with substrate ENLMFQS” value was 0.066, the “area with substrate ENLNFQS” value worked out at 0.0703, the “area with substrate ENLPFQS” value stood at 0.0618 and the “area with substrate ENLQFQS” value was found to be 0.0727. Further, the “area with substrate ENLRFQS” value is 0.0652, the “area with substrate ENLSFQS” value is 0.0536 and the “area with substrate ENLTFQS” value came to 0.0557.
Turning to MGESLFKGPRDYNPISSSICHLTNESDGHTTSLYGIGFGPFIITNKHLFRRNNGTLVVQSLHGVFKVKDTTTLQQHLVDGRDMIIIRMPKDFPPFPQKLKFREPQREERICLVTTNFQTKSMSSMVSDTSCTFPSCDGIFWKHWIQTKDGQCGSPLVSTRDGFIVGIHSASNFTNTNNYFTSVPKNFMELLTNQEAQQWVSGWRLNADSVLWGGHKVFMVKPEEPFQPVKEATQL [G136C], the “area with substrate ENLAFQS” value was 0.0537, the “area with substrate ENLCFQS” value is 0.0874, the “area with substrate ENLDFQS” value was 0.0633 and the “area with substrate ENLEFQS” value turned out to be 0.0781. Besides, the “area with substrate ENLFFQS” value was 0.102, the “area with substrate ENLGFQS” value was 0.0633, the “area with substrate ENLHFQS” value came to 0.0752 and the “area with substrate ENLIFQS” value is 0.0844. The “area with substrate ENLLFQS” value turned out to be 0.0726, the “area with substrate ENLMFQS” value turned out to be 0.0599, the “area with substrate ENLNFQS” value was determined as 0.0712 and the “area with substrate ENLPFQS” value is 0.0645. Moreover, the “area with substrate ENLQFQS” value was found to be 0.0745, the “area with substrate ENLRFQS” value worked out at 0.0766, the “area with substrate ENLSFQS” value was 0.0675 and the “area with substrate ENLTFQS” value amounted to 0.0622. For the same variant, the “area with substrate ENLVFQS” value came to 0.0815 and the “area with substrate ENLWFQS” value was found to be 0.0655.
With MGESLFKGPRDYNPISSSICHLTNESDGHTTSLYGIGFGPFIITNKHLFRRNNGTLVVQSLHGVFKVKDTTTLQQHLVDGRDMIIIRMPKDFPPFPQKLKFREPQREERICLVTTNFQTKSMSSMVSDTSCTFPSGDGIFWKGWIQTKDGQCGSPLVSTRDGFIVGIHSASNFTNTNNYFTSVPKNFMELLTNQEAQQWVSGWRLNADSVLWGGHKVFMVKPEEPFQPVKEATQL [H143G], the “area with substrate ENLAFQS” value worked out at 0.0326, the “area with substrate ENLCFQS” value is 0.0855, the “area with substrate ENLDFQS” value stood at 0.0488 and the “area with substrate ENLFFQS” value was found to be 0.0779. The “area with substrate ENLHFQS” value worked out at 0.0754, the “area with substrate ENLIFQS” value was determined as 0.0765, the “area with substrate ENLKFQS” value turned out to be 0.0678 and the “area with substrate ENLNFQS” value was determined as 0.0764. Further, the “area with substrate ENLPFQS” value amounted to 0.062, the “area with substrate ENLQFQS” value turned out to be 0.0585, the “area with substrate ENLRFQS” value was 0.0632 and the “area with substrate ENLSFQS” value is 0.0645.
In the case of MGESLFKGPRDYNPISSSICHLTNESDGHTTSLYGIGFGPFIITNKHLFRRNNGTLVVQSLHGVFKVKDTTTLQQHLVDGRDMIIIRMPKDFPPFPQKLKFREPQREERICLVTTNFQTKSMSSMVSDTSCTFQSGDGIFWKHWIQTKDGQCGSPLVSTRDGFIVGIHSASNFTNTNNYFTSVPKNFMELLTNQEAQQWVSGWRLNADSVLWGGHKVFMVKPEEPFQPVKEATQL [P134Q], the “area with substrate ENLAFQS” value is 0.0708, the “area with substrate ENLCFQS” value amounted to 0.0661, the “area with substrate ENLEFQS” value was found to be 0.0641 and the “area with substrate ENLFFQS” value is 0.0738. Besides, the “area with substrate ENLHFQS” value turned out to be 0.0632, the “area with substrate ENLKFQS” value amounted to 0.0679, the “area with substrate ENLLFQS” value turned out to be 0.0693 and the “area with substrate ENLPFQS” value amounted to 0.0525. In addition, the “area with substrate ENLSFQS” value was 0.0619, the “area with substrate ENLVFQS” value came out at 0.0756 and the “area with substrate ENLWFQS” value turned out to be 0.0594.
With MGESLFKGPRDYNPISSSICHLTNESDGHTTSLYGIGFGPFIITNKHLFRRNNGTLVVQSLHGVFKVKDTTTLQQHLVDGRDMIIIRMPKDFPPFPQKLKFREPQREERICLVTTNFQTKSMSSMVSDTSCTFWSGDGIFWKHWIQTKDGQCGSPLVSTRDGFIVGIHSASNFTNTNNYFTSVPKNFMELLTNQEAQQWVSGWRLNADSVLWGGHKVFMVKPEEPFQPVKEATQL [P134W], the “area with substrate ENLAFQS” value was 0.0567, the “area with substrate ENLCFQS” value is 0.0646, the “area with substrate ENLDFQS” value was 0.0605 and the “area with substrate ENLEFQS” value worked out at 0.0504. The “area with substrate ENLFFQS” value was determined as 0.0419, the “area with substrate ENLKFQS” value is 0.0702, the “area with substrate ENLLFQS” value came out at 0.0365 and the “area with substrate ENLNFQS” value amounted to 0.0561. The “area with substrate ENLPFQS” value is 0.0345.

Values taken from the supplement of paper PMC12217912.
